About 800 (1.6%) of roughly 50,000 compounds showed an effect of 50% or more. Some of the results follow.

The assay has as its target Bcl-2-like protein 10 (Homo sapiens) (UniProt Q9HD36). Briefly: TR3 peptide-Bcl-B binding displacers, biochemical primary FP assay, phenotype converters (AID 1240).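 Further: 0% = Bcl-B with tracer peptide and DMSO and 100% = tracer peptide lacking Bcl-B.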 The settings on record: GST-Bcl-B / FITC-TR3 peptide fluorescence polarization; stronger effect = higher value; compound at 3.75 mg/L.
Sequence of UniProt Q9HD36 (Q9HD36 whole entry, looked up): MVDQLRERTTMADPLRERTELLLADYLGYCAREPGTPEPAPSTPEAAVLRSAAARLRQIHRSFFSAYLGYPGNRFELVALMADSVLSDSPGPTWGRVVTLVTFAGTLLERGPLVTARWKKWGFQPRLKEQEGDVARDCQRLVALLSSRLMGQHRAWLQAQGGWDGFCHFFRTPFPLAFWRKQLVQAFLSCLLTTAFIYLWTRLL
As to `O=C(COc1ccc(Cl)cc1Cl)NS(=O)(=O)c1ccccc1`, the displacement was found to be 15.9%.

For the compound `Cn1c(=O)n(CC(=O)O)c2ccccc21`, the displacement was -6.5%.

For the compound `O=C1CC(Cc2ccccc2)C(=O)N1CCc1ccc2c(c1)OCO2` (stereo unspecified), the displacement was -8.6%.

With `COc1ccc(CN2CCN(C3CCCCC3)CC2)cc1Br`, the displacement was -1.9%.

As to `Cc1cc(C)nc(Sc2nc(Nc3ccccc3)nc(Sc3nc(C)cc(C)n3)n2)n1`, the displacement was found to be 7.2%.

`N#CC1=C(N)Oc2c([nH]c(=O)[nH]c2=O)C1c1ccccc1` (stereo unspecified): the displacement is 2.5%.

On to `CN1C(c2ccccc2)CC(O)(C#Cc2ccccc2)CC1c1ccccc1` (stereo unspecified), for which the displacement was -8%.

Take `CC(=O)C1=C(O)C(=O)N(CC2CCCO2)C1c1ccc(O)cc1` (stereo unspecified): the displacement is -2.6%.

On to `COc1ccc(CCNC(=S)Nc2ccccc2)cc1`, for which the displacement is -7.6%.

In the case of `Cc1ccc2nc(-c3ccc(N=Cc4ccc(Cl)c([N+](=O)[O-])c4)cc3)sc2c1`, the displacement was -4.8%.

`CCN1C(=O)/C(=C2\SC(=S)N(CC3CCCO3)C2=O)c2ccccc21` (stereo unspecified): the displacement is -7.3%.

Take `CCOC(=O)c1ccc(NC(=S)NC(NC(=O)c2ccc(Br)cc2)C(Cl)(Cl)Cl)cc1` (stereo unspecified): the displacement is -24.9%.

Take `CC1(C)CC(=O)C(C=NCCc2ccc(S(N)(=O)=O)cc2)=C(O)C1`: the displacement is 14%.

For `C/C(=N/NC(=O)c1ccoc1C)C12CC3CC(CC(C3)C1)C2`, the displacement was 14.3%.

As for `CC(=O)Nc1ccccc1NC(=O)COc1cccc(C)c1`, the displacement is -5.8%.

Take `O=C(COc1ccccc1[N+](=O)[O-])Nc1ccc(-c2nc3ncccc3o2)cc1`: the displacement came to 2.9%.

Take `NC(=O)SCC(=O)Nc1ccc(Br)cc1`: the displacement was 4.1%.

In the case of `COC(=O)c1cccc(-c2ccc(C=C3C(=O)N(C)C(=O)N(C)C3=O)o2)c1`, the displacement amounted to 7.7%.

On to `CC1=NN(C(=O)CCc2ccccc2)C(O)(c2ccc(Br)cc2)C1` (stereo unspecified), for which the displacement worked out at 1.9%.

As for `COc1ccc(/C=N/NC(=O)c2ccc(=O)n(C)c2)cc1`, the displacement came to 5%.

Consider `O=C(c1ccc(Cl)c(Cl)c1)N1CCOCC1`, for which the displacement turned out to be 1.5%.

Turning to `O=C(Nc1ccc2nn(-c3ccc(F)cc3)nc2c1)c1cccnc1`, the displacement was -2.2%.

As to `CCCc1cc(=O)oc2cc(C)cc(O)c12`, the displacement was 11%.

`CCOC(=O)c1ccccc1NC(=O)CN(c1ccc(OC)cc1)S(=O)(=O)c1ccc(C)cc1`: the displacement is -0.7%.

For the compound `O=C(NCc1ccccc1)c1cc2nc(-c3cccs3)cc(C(F)(F)F)n2n1`, the displacement was -15.2%.

As for `COc1ccc(C(=O)CC2(O)C(=O)Nc3ccccc32)cc1OC` (stereo unspecified), the displacement is -6.9%.

Consider `NS(=O)(=O)c1ccc(NC(=O)CCN2C(=O)S/C(=C\c3ccc(Cl)cc3)C2=O)cc1`, for which the displacement was -5.5%.

Consider `Cc1ccccc1NC(=O)C(=O)NCc1ccccn1`, for which the displacement came to 1.7%.

For the compound `CCOc1ccc(NC(=O)c2ccc(S(=O)(=O)N3CCOCC3)cc2)cc1`, the displacement is 6.6%.

As to `O=C(Cc1ccccc1)NCc1ccc(Cl)cc1`, the displacement is -5.1%.

In the case of `CCOC(=O)/C(=C\c1cccc(Br)c1)NC(=O)c1ccccc1`, the displacement is -2.3%.

On to `CCOc1cc(/C=C2\C(=O)NC(=O)N(c3ccc(Cl)cc3)C2=O)cc(I)c1OC`, for which the displacement is 12.9%.

On to `O=C1C(=O)N(CCO)C(c2ccccc2[N+](=O)[O-])/C1=C(\O)c1ccccc1` (stereo unspecified), for which the displacement was -6.8%.

`COc1ccc(/C=C2\NC(=O)C(C=NCc3ccccc3)=C2O)cc1`: the displacement is -9.3%.

As for `COc1ccccc1CNC(=O)c1c(Cl)cccc1Cl`, the displacement was found to be 3.4%.

As to `Cc1ccc(-c2nc3c(cnn3-c3ccccc3)c(=O)o2)cc1`, the displacement worked out at 7.2%.

With `COc1ccccc1C1SCCN1C(=O)/C=C\C(=O)O` (stereo unspecified), the displacement amounted to 11.2%.

Take `COc1ccc(C)cc1NC(=O)C(=O)NCc1cccnc1`: the displacement was -13.8%.

Take `Cc1ccc(OCC(=O)NNC(=O)CC#N)c(C)c1`: the displacement is -8.5%.

With `O=C1C(=Cc2cccc(OCc3ccccc3)c2)C(=O)c2ccccc21`, the displacement was determined as 38.5%.

As for `O=S(=O)(c1ccc(Cl)c(Cl)c1)N1CCN(Cc2ccccc2)CC1`, the displacement was -8.7%.

In the case of `COC(=O)C(Cc1ccccc1)NC(=O)c1ccccc1` (stereo unspecified), the displacement was -10.3%.

Regarding `C/C(=N\NC(=O)COc1ccc(Cl)cc1Cl)c1cccnc1`, the displacement came to 1.9%.

As to `Cc1[nH]c2ccccc2c1/C=N/NC(=O)c1cccnc1`, the displacement was 5.9%.

Regarding `COc1ccc(C=NN2CCN(Cc3ccc(C)cc3C)CC2)cc1Br`, the displacement came out at 9.1%.

For the compound `O=C(Nc1nc(-c2ccc(Br)cc2)cs1)c1cc([N+](=O)[O-])ccc1Cl`, the displacement was -6.6%.

For `CC(=O)C1=C(O)C(=O)N(CCCC(=O)O)C1c1ccc([N+](=O)[O-])cc1` (stereo unspecified), the displacement was -7.4%.

As for `CC(C)(C)c1ccc(OCC(O)CN2CCN(c3ccccc3)CC2)cc1` (stereo unspecified), the displacement was determined as 14.3%.

For the compound `CCCOc1ccc(C2C(C(=O)OC)=C(C)N(C)C(C)=C2C(=O)OC)cc1`, the displacement is -12.5%.

Regarding `CCOC(=O)c1c(C)[nH]c(N=Nc2cccc(OC)c2)c1C`, the displacement stood at 4.2%.

For the compound `CCOc1ccc(NC(=O)/C=C\C(=O)O)cc1`, the displacement was -4.2%.

On to `COc1ccccc1CNC(=O)c1ccc([N+](=O)[O-])o1`, for which the displacement was -12%.

Consider `COC(=O)c1ccc(C(=O)OC)c(NC(=O)C2CC3CCC2C3)c1` (stereo unspecified), for which the displacement was -4.5%.

With `O=C(Nc1ccc(F)c([N+](=O)[O-])c1)c1cccc(OCc2ccccc2)c1`, the displacement stood at 14.4%.

Regarding `O=C1NCC(Cn2c3ccccc3c3ccccc32)O1` (stereo unspecified), the displacement is -7.9%.

Turning to `CN(/N=C/c1ccccc1Sc1ccccc1)c1ccccc1`, the displacement stood at 9.4%.

For the compound `CC1CCc2c(sc(N)c2C(=O)Nc2cccc(Cl)c2)C1` (stereo unspecified), the displacement is -9.1%.

In the case of `O=C(NCCNC(=O)c1cccc(O)c1)c1cccc(O)c1`, the displacement was found to be 12.7%.

Consider `CCN(CC)CCCNS(=O)(=O)c1ccc(C)cc1`, for which the displacement was -29.4%.

As to `COc1ccc(C2/C(=C(\O)c3ccc(F)cc3)C(=O)C(=O)N2c2nncs2)cc1` (stereo unspecified), the displacement stood at 11%.

Consider `COc1ccc(OC)c(NC(=O)c2cc(Cl)c(OC)c(Cl)c2)c1`, for which the displacement was 9.5%.

`Cc1ccc(C(=O)O/N=C(\N)c2ccc(Cl)cc2)cc1`: the displacement was -7.4%.

As for `O=C1/C(=C/c2cccc(Cl)c2Cl)SC(=S)N1c1ccc([N+](=O)[O-])cc1`, the displacement stood at 2.1%.

Take `COc1cc(/C=N/NC(=O)C(C)Nc2ccc(Cl)cc2)cc(OC)c1OC` (stereo unspecified): the displacement is 4.4%.

As to `CCOc1ccc(-n2nc3ccc(NC(=S)NC(=O)c4ccccc4Cl)cc3n2)cc1`, the displacement was -10.1%.

As for `CCN1C(=O)NC(c2ccc([N+](=O)[O-])cc2)C(C(=O)OCCOc2ccccc2)=C1C` (stereo unspecified), the displacement was 6.5%.

With `CCCNC1=CC(=O)C(NCCC)=CC1=O`, the displacement was -3.9%.

For `Cc1ccc(C)c(N(CC(=O)Nc2c(C)n(C)n(-c3ccccc3)c2=O)S(=O)(=O)c2ccccc2)c1`, the displacement was found to be 5.5%.

Turning to `COc1ccc(NC(=O)O/N=C\c2ccccc2Cl)cc1`, the displacement is 2.1%.

For the compound `O=C(NCC1CCCO1)c1cc2n(n1)C(C(F)(F)F)CC(c1ccco1)N2` (stereo unspecified), the displacement turned out to be 0.4%.

Regarding `Cc1ccc(-c2nc(N/N=C/c3cccc(F)c3)c3ccccc3n2)cc1`, the displacement turned out to be 5%.

Values taken from PubChem BioAssay AID1240 (Sanford-Burnham Center for Chemical Genomics, 2008).
